MIC by broth microdilution (CLSI, 0.25-128 µg/mL, 18 h, 37 °C) of Gram-negative wastewater isolates picked on carbapenem-selective plates; higher = less susceptible. No active / inactive call. Isolates were selected for resistance.
What was measured:
Test in all cases: Broth microdilution (CLSI), cation-adjusted Mueller-Hinton broth, two-fold steps from 0.25 to 128 µg/mL, 18 h at 37 °C.
[1] = compound: C[C@@H](O)[C@H]1C(=O)N2C(C(=O)O)=C(S[C@@H]3CN[C@H](C(=O)N(C)C)C3)[C@H](C)[C@H]12 [Meropenem]
[2] = compound: C[C@@H](O)[C@H]1C(=O)N2C(C(=O)O)=C(SCCNC=N)C[C@H]12 [Imipenem]
[3] = compound: C[C@@H](O)[C@H]1C(=O)N2C(C(=O)O)=C(S[C@@H]3CN[C@H](C(=O)Nc4cccc(C(=O)O)c4)C3)[C@H](C)[C@H]12 [Ertapenem]

Row | Test System | MIC [1] [µg/mL] | MIC [2] [µg/mL] | MIC [3] [µg/mL]
1 | Kluyvera cryocrescens isolate primary sludge #31 (carbapenemase genes (PCR): KPC) | 128 | 128 | 64
2 | Kluyvera cryocrescens isolate primary sludge #46 (carbapenemase genes (PCR): KPC) | 128 | 128 | 64
3 | Kluyvera cryocrescens isolate primary sludge #50 (carbapenemase genes (PCR): KPC) | 128 | 128 | 64
4 | Kluyvera cryocrescens isolate secondary sludge #46 (carbapenemase genes (PCR): KPC) | 64 | 32 | 16
5 | Kluyvera cryocrescens isolate sewage #58 (carbapenemase genes (PCR): KPC) | 32 | 16 | 8
6 | Kluyvera cryocrescens isolate sewage #84 (carbapenemase genes (PCR): KPC) | 64 | 128 | 32
7 | Kluyvera georgiana isolate primary sludge #51 (carbapenemase genes (PCR): KPC) | 128 | 128 | 64
8 | Kluyvera georgiana isolate secondary sludge #54 (carbapenemase genes (PCR): KPC) | > 128 | 128 | 64
9 | Kluyvera georgiana isolate sewage #149 (carbapenemase genes (PCR): KPC) | 32 | 16 | 4
10 | Pseudomonas aeruginosa isolate primary sludge #253 (carbapenemase genes (PCR): VIM) | 64 | 32 | 8
11 | Pseudomonas aeruginosa isolate primary sludge #254 (carbapenemase genes (PCR): VIM) | 64 | 32 | 8
12 | Pseudomonas aeruginosa isolate primary sludge #255 (carbapenemase genes (PCR): VIM) | 64 | 32 | 8
13 | Pseudomonas aeruginosa isolate primary sludge #256 (carbapenemase genes (PCR): VIM) | 64 | 32 | 8
14 | Pseudomonas aeruginosa isolate primary sludge #258 (carbapenemase genes (PCR): VIM) | 64 | 32 | 8
15 | Pseudomonas aeruginosa isolate secondary sludge #79 (carbapenemase genes (PCR): VIM) | 128 | 64 | 32
16 | Pseudomonas aeruginosa isolate secondary sludge #86 (carbapenemase genes (PCR): VIM) | 128 | 64 | 32
17 | Pseudomonas aeruginosa isolate secondary sludge #206 (carbapenemase genes (PCR): VIM) | 64 | 32 | 8
18 | Pseudomonas aeruginosa isolate secondary sludge #207 (carbapenemase genes (PCR): VIM) | 64 | 32 | 8
19 | Pseudomonas aeruginosa isolate secondary sludge #208 (carbapenemase genes (PCR): VIM) | 64 | 32 | 8
20 | Pseudomonas aeruginosa isolate secondary sludge #209 (carbapenemase genes (PCR): VIM) | 64 | 32 | 8
21 | Pseudomonas aeruginosa isolate secondary sludge #210 (carbapenemase genes (PCR): VIM) | 64 | 32 | 8
22 | Pseudomonas aeruginosa isolate secondary sludge #211 (carbapenemase genes (PCR): VIM) | 64 | 32 | 8
23 | Pseudomonas aeruginosa isolate secondary sludge #212 (carbapenemase genes (PCR): VIM) | 64 | 32 | 8
24 | Pseudomonas aeruginosa isolate secondary sludge #213 (carbapenemase genes (PCR): VIM) | 64 | 32 | 8
25 | Pseudomonas aeruginosa isolate sewage #184 (carbapenemase genes (PCR): VIM) | 64 | 32 | 64

Row | Test System | MIC [1] [µg/mL] | MIC [2] [µg/mL] | MIC [3] [µg/mL]
26 | Pseudomonas aeruginosa isolate sewage #221 (carbapenemase genes (PCR): VIM) | 64 | 32 | 8
27 | Pseudomonas aeruginosa isolate sewage #222 (carbapenemase genes (PCR): VIM) | 64 | 32 | 8
28 | Pseudomonas aeruginosa isolate sewage #223 (carbapenemase genes (PCR): VIM) | 64 | 32 | 8
29 | Pseudomonas aeruginosa isolate sewage #228 (carbapenemase genes (PCR): VIM) | 64 | 32 | 8
30 | Pseudomonas koreensis isolate sewage #1 (carbapenemase genes (PCR): ND) | 16 | 4 | 4
31 | Pseudomonas koreensis isolate sewage #7 (carbapenemase genes (PCR): IMP) | 16 | 8 | 4
32 | Pseudomonas koreensis isolate sewage #16 (carbapenemase genes (PCR): ND) | 128 | 32 | 16
33 | Pseudomonas monteilii isolate secondary sludge #39 (carbapenemase genes (PCR): IMP) | 128 | 32 | 64
34 | Pseudomonas putida isolate secondary sludge #48 (carbapenemase genes (PCR): IMP) | > 128 | 32 | 64
35 | Pseudomonas putida isolate secondary sludge #50 (carbapenemase genes (PCR): IMP) | > 128 | 64 | 64
36 | Pseudomonas putida isolate secondary sludge #51 (carbapenemase genes (PCR): IMP) | > 128 | 64 | 64
37 | Pseudomonas putida isolate secondary sludge #53 (carbapenemase genes (PCR): ND) | 128 | 16 | 64
38 | Pseudomonas putida isolate secondary sludge #57 (carbapenemase genes (PCR): IMP) | 64 | 128 | 64
39 | Pseudomonas putida isolate sewage #14 (carbapenemase genes (PCR): ND) | 64 | 16 | 8
40 | Pseudomonas putida isolate sewage #35 (carbapenemase genes (PCR): IMP) | 64 | 16 | 4
41 | Pseudomonas putida isolate sewage #72 (carbapenemase genes (PCR): IMP) | 128 | 64 | 64
42 | Pseudomonas putida isolate sewage #74 (carbapenemase genes (PCR): IMP) | 128 | 128 | 64
43 | Pseudomonas putida isolate sewage #98 (carbapenemase genes (PCR): IMP) | 128 | 64 | 64
44 | Pseudomonas putida isolate sewage #102 (carbapenemase genes (PCR): IMP) | 64 | 16 | 64
45 | Pseudomonas putida isolate sewage #103 (carbapenemase genes (PCR): IMP) | 64 | 16 | 64
46 | Pseudomonas putida isolate sewage #105 (carbapenemase genes (PCR): IMP) | 64 | 16 | 64
47 | Pseudomonas putida isolate sewage #108 (carbapenemase genes (PCR): IMP) | 64 | 32 | 64
48 | Stenotrophomonas maltophilia isolate primary sludge #37 (carbapenemase genes (PCR): KPC) | 128 | 128 | 64
49 | Stenotrophomonas maltophilia isolate primary sludge #176 (carbapenemase genes (PCR): ND) | 64 | 64 | 32
50 | Stenotrophomonas maltophilia isolate secondary sludge #26 (carbapenemase genes (PCR): ND) | 128 | 128 | 64
